The results in this text go back to the supplement of paper PMC11417369.

± gives the standard deviation of the averaged measurements. The list shows a part of the results.

The subject of this test is PfAP2-G AP2 domain (GST-tagged). The test can be described thus: gcPBM binding intensity (ln(normalized median fluorescence intensity)); higher = stronger DNA binding. Put shortly: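 GST-tagged P. falciparum DNA-binding domains produced in E. coli were incubated for 1 h on an Agilent 4 × 180k array of primer-extended double-stranded 36-bp intergenic genomic probes with negative controls. Binding intensity is the highest Masliner-normalised natural-log median intensity across replicate spots of either probe orientation, with bound protein detected by Alexa488 anti-GST antibody at 488 nm.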
With “CGTAGCCGCACTAACACACACAAATATACGCAATCA [CACACA_site2898]”, the “gcPBM binding intensity (ln)” value was 10.2 ± 0.18. For “AAAAAAAAAAAAAATAATAAATAAATAAATAAATAA [GTGCAC_negctrl_site505]” the value was 9.56 ± 0.17; for “AGGAAAAAAAGTAGCACACAAATATTTATAATATAT [CACACA_site2437]”, 10.3 ± 0.2; for “AACATATTTATATACACACACATATTTATATGAAAT [CACACA_site6268]”, 9.905 ± 0.021.

In the case of “GAGAGGATACATACATGTACATAAATATTTTATTTT [XGTACX_site5129]”, the “gcPBM binding intensity (ln)” value turned out to be 11.1 ± 0.67. In the case of “AAAAATAAAAAAAAATTAAAATATATATATTTTGTT [TGCATGCA_negctrl_site102]”, the “gcPBM binding intensity (ln)” value was 9.34 ± 0.29.

For “ATATTTTGGGTGTTGTTTTTTTTTAAAACTCTTTAA [CACACA_negctrl_site1255]”, the “gcPBM binding intensity (ln)” value was 10.3 ± 0.17.

For the sequence “ATTAGTTTATATGAATGATTTTTCTTTTTTTTTTTT [CACACA_negctrl_site88]”, the “gcPBM binding intensity (ln)” value was 9.49 ± 0.3. For “TTACTATTTCACTGTGCATGCAACAAAAATCTATCT [TGCATGCA_site808]” the value was 10.3 ± 0.31; for “ATTATATTAAAATATTCACACACTAACGTAAATCAT [CACACA_site8887]”, 9.92 ± 0.14; for “TAAATACATAAATACACACACATATATATATATATA [CACACA_site5549]”, 10.6 ± 1.

For the sequence “TATCATTTTGAAGTATGTACTTATTTTATTAAAATA [XGTACX_site7784]”, the “gcPBM binding intensity (ln)” value stood at 11.3 ± 0.83. Take “TTTTTCCAATCAGATGCATGTTACTATATTTGGTTC [TGCATGCA_site52]”: the “gcPBM binding intensity (ln)” value was found to be 9.96 ± 0.014.

As for “CACCTCAATATTCACATACACACAATATCATCGAAG [CACACA_site1675]”, the “gcPBM binding intensity (ln)” value came to 10.1 ± 0.2. The result for “TAGGTCATATTTTTTGCACACAAAAAAAAATATAAA [CACACA_site3380]” reads 10.3 ± 0.44; that for “TGTATAAGGTTTTTACGTTTTGAAGGATGTATTGTT [CACACA_negctrl_site1245]”, 10 ± 0.16. On to “ATGTAATTGTATACATGTACGCAAACACAAAAGCAT [XGTACX_site6771]”, for which the “gcPBM binding intensity (ln)” value was 11.5 ± 0.88. Take “GGGAGGATATTACACAGTACCCAGGAAATCTACGGA [XGTACX_site4874]”: the “gcPBM binding intensity (ln)” value is 10.9 ± 0.61. The result for “TATGTTCCGAAGGTTGTACACACATAGAAATATACA [CACACA_site9285]” reads 11.6 ± 0.8; that for “TTTTTTTTTTTTGTAACATGCAAACAACAATATGGG [TGCATGCA_site695]”, 10.3 ± 0.54. On to “ATGAACTTATTTTAGTGTACTAAAAAATATGACTTC [XGTACX_site470]”, for which the “gcPBM binding intensity (ln)” value was 11.4 ± 1.

For “AAGGAAAAAACAAATACACACAAAAACGCATTATAA [CACACA_site3466]”, the “gcPBM binding intensity (ln)” value was determined as 10.2 ± 0.078. For “TACATAATTTTAATCACACACAAACAAACACATACA [CACACA_site194]” the value was 10.5 ± 0.54. Turning to “GTAAGTATATATAATAGTACATATATATTAATATAT [XGTACX_site4314]”, the “gcPBM binding intensity (ln)” value is 11 ± 0.55. In the case of “TTTTGTTCATACAAATTGGAACAAGACAAAAATATA [XGTACX_negctrl_site327]”, the “gcPBM binding intensity (ln)” value was determined as 10.4 ± 0.35. With “TATTCTAGTCTGCTTACACACATATTTATATTTATA [CACACA_site7432]”, the “gcPBM binding intensity (ln)” value came to 10.13 ± 0.078. On to “TGTTTACACTTTTTTTGTACACATAATTTTATTTGA [XGTACX_site3760]”, for which the “gcPBM binding intensity (ln)” value was found to be 11.3 ± 0.81.

Turning to “AAAAAAAAAAAAAACACACACATATAACATATTTAA [CACACA_site6745]”, the “gcPBM binding intensity (ln)” value was determined as 10.1 ± 0.3.

On to “CTATATATTTAAAAAAGTACAAATATAAAAATATAT [XGTACX_site676]”, for which the “gcPBM binding intensity (ln)” value was 11.4 ± 0.88. For “TAATATTTTATTTTTGTTGTGGATCCAAAAAAAAAA [CACACA_negctrl_site846]” the value was 10.4 ± 0.4; for “TGTTTATCATATTTGTGTCCTCATTTTTTAGTATCA [XGTACX_site947]”, 11.3 ± 0.74; for “AATATATGGTTTCATGATATAAAATTCAATTTAATG [GTGCAC_negctrl_site610]”, 9.79 ± 0.3.

For the sequence “TATATATATATATATGTATGCATGTCCTTTTTTATT [TGCATGCA_site344]”, the “gcPBM binding intensity (ln)” value was 11 ± 0.67. The result for “ATTTTTTTTAAACGAAGTACAATTTGTGCATTGGAA [XGTACX_site8109]” reads 11.2 ± 0.88; that for TTTTTTTTTTTTGTAGTGCAAATTAAAAATATATGT, 10.2 ± 0.57; that for “ATTTTTTTTTTTTTTTTTTTTTTTTTTTTTTTATGC [CACACA_negctrl_site1018]”, 9.655 ± 0.007. Regarding “TTATTTCTTCAGAAAAAATTAAAAAATTAAACAATA [CACACA_negctrl_site169]”, the “gcPBM binding intensity (ln)” value stood at 9.86 ± 0.11.

Consider “TAATTTACACCTACGTGTACACACAAAAATATGTTT [XGTACX_site1868]”, for which the “gcPBM binding intensity (ln)” value was found to be 11.6 ± 0.95. For the sequence “TTTATTATCAAGATTGCACACCCTTATGAACTTTTT [CACACA_site3166]”, the “gcPBM binding intensity (ln)” value turned out to be 10.15 ± 0.078.

Turning to “ACTATATTTCTATAATGTACAAAAATAAATCATATG [XGTACX_site3337]”, the “gcPBM binding intensity (ln)” value was 10.8 ± 0.39.

Turning to “ACCTATAAAAAATAATGTACAGGAAGAAATATAAGG [XGTACX_site5822]”, the “gcPBM binding intensity (ln)” value is 11.2 ± 0.57. For “ACAAAAAAAAAGGAAACACACAAAAAAAAAAAATAA [CACACA_site3523]” the value was 9.875 ± 0.064; for “AGAAATATGTTGAAGCATTTATAATGTAGATATAAG [GTGCAC_negctrl_site640]”, 9.68 ± 0.18.
